Biological target: T1, Tie2 on cells (human, UniProt Q02763 23-1124)
T1 construct: whole, on cells
Experiment: expression cloning, staining of library-transfected COS cells with 1 µg/ml Ang1-FD-Fc
Description: cDNA expression libraries were constructed in the expression vector pJFE with mRNA isolated from human umbilical vein endothelial cells (HUVECs) and from the endothelial-like cell line EA.hy926, using a kit (Invitrogen). The libraries were transfected into dishes of COS cells and screened as in Davis, S., et al., (1994; Science. 266:816-819) with the chimeric molecule Ang1-FD-Fc, consisting of the Tie2-binding fibrinogen-like domain (FD) of Ang1 fused to a human Fc tag (Davis, 2003, supra, SEQ ID NO:5), at a concentration of 1 μg/ml. Stained cells were rescued, and plasmid DNA extracted from them was progressively enriched until isolated clones were obtained. Out of eight independent clones, one of the associated cDNAs coded for Tie2, and the other seven clones, differing only in the length of untranslated regions, contained cDNAs encoding thrombomodulin TM, a cell surface protein highly expressed in endothelial cells (Esmon, 1981, supra).

T1 sequence (Q02763 23-1124): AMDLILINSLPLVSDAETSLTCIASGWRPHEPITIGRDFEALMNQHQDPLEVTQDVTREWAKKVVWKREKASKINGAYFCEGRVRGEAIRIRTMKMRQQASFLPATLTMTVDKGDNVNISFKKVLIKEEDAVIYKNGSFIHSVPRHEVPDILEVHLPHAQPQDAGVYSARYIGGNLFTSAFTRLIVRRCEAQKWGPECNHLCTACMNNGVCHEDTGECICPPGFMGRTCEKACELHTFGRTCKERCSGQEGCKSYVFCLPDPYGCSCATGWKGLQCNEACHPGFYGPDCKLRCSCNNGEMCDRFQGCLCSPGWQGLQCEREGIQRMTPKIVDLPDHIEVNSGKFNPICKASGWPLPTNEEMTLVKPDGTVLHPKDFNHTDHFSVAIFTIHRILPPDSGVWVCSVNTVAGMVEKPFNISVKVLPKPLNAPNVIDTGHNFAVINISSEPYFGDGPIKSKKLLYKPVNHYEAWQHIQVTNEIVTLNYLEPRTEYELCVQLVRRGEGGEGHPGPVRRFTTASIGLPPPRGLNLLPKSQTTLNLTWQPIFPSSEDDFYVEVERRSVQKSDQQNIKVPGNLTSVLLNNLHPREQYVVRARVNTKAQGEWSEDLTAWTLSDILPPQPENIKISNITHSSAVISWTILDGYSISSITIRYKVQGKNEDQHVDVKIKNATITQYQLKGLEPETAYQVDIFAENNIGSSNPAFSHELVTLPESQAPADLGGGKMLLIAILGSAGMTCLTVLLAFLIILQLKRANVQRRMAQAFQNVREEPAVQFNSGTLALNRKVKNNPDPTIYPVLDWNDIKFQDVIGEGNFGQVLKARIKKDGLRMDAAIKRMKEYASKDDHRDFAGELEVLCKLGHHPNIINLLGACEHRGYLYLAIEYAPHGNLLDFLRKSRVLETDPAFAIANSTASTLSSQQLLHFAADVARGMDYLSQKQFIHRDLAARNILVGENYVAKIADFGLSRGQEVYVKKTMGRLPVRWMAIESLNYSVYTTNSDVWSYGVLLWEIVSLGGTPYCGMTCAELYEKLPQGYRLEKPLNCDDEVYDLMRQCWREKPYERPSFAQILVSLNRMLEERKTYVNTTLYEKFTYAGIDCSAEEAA

binding result: binds
B1: Ang1-FD-Fc (Fc fusion)
chain: RDCADVYQAGFNKSGIYTIYINNMPEPKKVFCNMDVNGGGWTVIQHREDGSLDFQRGWKEYKMGFGNPSGEYWLGNEFIFAITSQRQYMLRIELMDWEGNRAYSQYDRFHIGNEKQNYRLYLKGHTGTAGKQSSLILHGADFSTKDADNDNCMCKCALMLTGGWWFDACGPSNLNGMFYTAGQNHGKLNGIKWHYFKGPSYSLRSTTMMIRPLDFGPG[human IgG1 Fc not listed]
notes: Signal peptide (residues 1-15) removed
